Assay results from the supplement of paper PMC11417369.
The list shows a part of the results.

tested on: PfAP2-HC AP2 domain (GST-tagged); test: gcPBM binding intensity (ln(normalized median fluorescence intensity)); higher = stronger DNA binding
How it was run: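 For binding intensity, the highest Masliner-normalised natural-log median intensity across replicate spots of either probe orientation was taken. Protein bound to the array was stained with Alexa488 anti-GST antibody and scanned at 488 nm. The protein, GST-tagged P. falciparum DNA-binding domains from E. coli at about 25 μg on average, had been applied for 1 h to an Agilent 4 × 180k array of primer-extended double-stranded 36-bp intergenic genomic probes and negative controls.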

Row | Sequence | gcPBM binding intensity (ln)
1 | ATACACACAGCCTAAACATGCATATAGAAAAAAGAA [TGCATGCA_site1028] | 10.2
2 | TTTTTTTTTTTTTTATGTACTAAAAAATGAAAAATA [XGTACX_site6812] | 9.06
3 | AAATACTTAACATTGGTGCATATTTGTAAAATTATT [GTGCAC_site9515] | 9.68
4 | TTTTGGCTTCTAATATTATACAAAATGGTAAGGAAA [TGCATGCA_negctrl_site169] | 9.37
5 | AGAATACAAAATTGCACACATATTGTGAAAATGTTA [CACACA_site4005] | 10
6 | ATGCAATAATAATATTGTACGCATATATTTTTTACT [XGTACX_site3384] | 9.64
7 | AAAAAAAAAAAAAAAACACACACATATATATAATAT [CACACA_site9038] | 10.3
8 | TTATTTATTTATTGGGTGCACTTGATTTAAATATGC | 9.53
9 | AATACATCATTAAAATGTACATATATATATACATTA [XGTACX_site132] | 9.61
10 | ATTATAATAATGTGATGTACATTAATTGTCTTCCTA [XGTACX_site5404] | 9.67
11 | GAAATAAGGGTTATTTCACACATTGCATGTATTTTC [CACACA_site5752] | 9.72
12 | ATATATATTAATTTTGTGCACAAATGGAAATGTTTG [GTGCAC_site9971] | 9.68
13 | TTTTTTAAATGTCATTGTACATAATTCAATATATAA [XGTACX_site5] | 9.39
14 | AGCTAATATATCTTATATTCATATAAAAAAATATAT [CACACA_negctrl_site1786] | 9.41
15 | TGACTTTTTTTATGTTGTACTTATTATAAAAAAAAT [XGTACX_site7736] | 9.11
16 | TTATAAAATATTTTTTGTACACATAATAGTAAGACT [XGTACX_site933] | 9.43
17 | AATACATGCTTATTTTAACACACAAATGGTAGTAAT [CACACA_site8154] | 9.83
18 | GATTATTTTATAAGTACACACATTTATCTATAATAA [CACACA_site7256] | 9.69
19 | GATTAATACACATTCTTCCGACATAATAAGAAAAAG [GTGCAC_negctrl_site7] | 9.56
20 | CTTATATTTAGACACACACACAATAAAATGAAAAAA [CACACA_site1031] | 10.3
21 | AACCATGTTAACAACGCATGTATATCTATGGGTTTA [TGCATGCA_site419] | 9.53
22 | CCATAATATTATAGACGTACGAATATATATAAAAGA [XGTACX_site7295] | 9.75
23 | CACCCACACCAACACACACACATATATAATATATAT [CACACA_site595] | 10.6
24 | TATAGATAACAAAAGTGTACATGTTGTATACACATG [XGTACX_site3471] | 9.71
25 | AACAACTATTACTGCACACATTCTTACACTATATAA [CACACA_site654] | 10.1
